# The supplement of paper PMC8728848
# The other results are listed elsewhere or left out.
# Columns and labels:
# Experiment in all cases: glycan array binding signal (z-score within array); higher = stronger binding
# Conditions in all cases: glycan notation: IUPAC condensed, linker removed
# [1] = biological target: Gal6S(b1-4)Glc6S
# Method in brief: (§1)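 The binding signal is a Z-score computed within each array. Data were drawn from 3228 arrays in the Consortium for Functional Glycomics database, restricted to those with a known protein sequence. Scores were averaged over arrays of the same protein sequence at different concentrations or buffers, and over linkers, and negative values can be taken as non-binding.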
# [2] = biological target: Gal6S(b1-4)GlcNAc
# Method in brief: as §1
# [3] = biological target: Gal6S(b1-4)GlcNAc6S
# Method in brief: as §1
# [4] = biological target: GalNAc(a1-3)Gal
# Method in brief: as §1
# [5] = biological target: GalNAc(a1-3)GalNAc
# Method in brief: as §1
# [6] = biological target: GalNAc(a1-3)GalNAc(b1-3)Gal(a1-4)Gal(b1-4)Glc
# Method in brief: as §1
# [7] = biological target: GalNAc(a1-3)GalNAc(b1-3)Gal(a1-4)Gal(b1-4)GlcNAc
# Method in brief: as §1
# [8] = biological target: GalNAc(b1-3)Gal
# Method in brief: as §1
# [9] = biological target: GalNAc(b1-3)Gal(a1-4)Gal(b1-4)GlcNAc
# Method in brief: as §1
# [10] = biological target: GalNAc(b1-3)Gal(a1-4)Gal(b1-4)GlcNAc(b1-3)Gal(b1-4)Glc
# Method in brief: as §1
# [11] = biological target: GalNAc(b1-3)Gal(a1-6)Gal(b1-4)Glc
# Method in brief: as §1
# [12] = biological target: GalNAc(b1-3)GalNAc
# Method in brief: as §1
# [13] = biological target: GalNAc(b1-3)GlcNAc
# Method in brief: as §1
# [14] = biological target: GalNAc(b1-4)Gal(b1-4)Glc
# Method in brief: as §1
# [15] = biological target: GalNAc(b1-4)GlcNAc
# Method in brief: as §1
# [16] = biological target: GalNAc(b1-4)GlcNAc(b1-2)Man
# Method in brief: as §1
# [17] = biological target: GalNAc(b1-4)GlcNAc(b1-2)Man(a1-3)[GalNAc(b1-4)GlcNAc(b1-2)Man(a1-6)]Man(b1-4)GlcNAc(b1-4)GlcNAc
# Method in brief: as §1
# [18] = biological target: GalNAc(b1-4)GlcNAc(b1-3)GalNAc(b1-4)GlcNAc
# Method in brief: as §1
# [19] = biological target: GalNAc(b1-4)GlcNAc6S
# Method in brief: as §1
# [20] = biological target: GalNAc(b1-6)GalNAc
# Method in brief: as §1
# [21] = biological target: GalNAc3S(b1-4)GlcNAc
# Method in brief: as §1
# [22] = biological target: GalNAc3S(b1-4)GlcNAc3S
# Method in brief: as §1
# [23] = biological target: GalNAc3S(b1-4)[Fuc(a1-3)]GlcNAc
# Method in brief: as §1
# [24] = biological target: GalNAc4S6S(b1-4)GlcNAc
# Method in brief: as §1
# [25] = biological target: GalNAc6S(b1-4)GlcNAc
# Method in brief: as §1
# [26] = biological target: Glc(a1-4)Glc
# Method in brief: as §1
# [27] = biological target: Glc(a1-4)Glc(a1-4)Glc(a1-4)Glc
# Method in brief: as §1
# [28] = biological target: Glc(a1-6)Glc(a1-6)Glc
# Method in brief: as §1
# [29] = biological target: Glc(a1-6)Glc(a1-6)Glc(a1-6)Glc
# Method in brief: as §1
# [30] = biological target: Glc(b1-4)Glc
# Method in brief: as §1
# [31] = biological target: Glc(b1-6)Glc
# Method in brief: as §1
# [32] = biological target: GlcA(b1-3)Gal
# Method in brief: as §1
# [33] = biological target: GlcA(b1-3)GlcNAc
# Method in brief: as §1
# [34] = biological target: GlcA(b1-6)Gal
# Method in brief: as §1
# [35] = biological target: GlcA3S(b1-3)Gal(b1-4)GlcNAc(b1-2)Man
# Method in brief: as §1
# [36] = biological target: GlcA3S(b1-3)Gal(b1-4)GlcNAc(b1-3)Gal(b1-4)Glc
# Method in brief: as §1
# [37] = biological target: GlcNAc(a1-3)Gal(b1-4)GlcNAc
# Method in brief: as §1
binder,measurement,setting,value
GS7807H-bfa-490-18-490 (Bacteroides fragilis) (protein) GNLEEMNIDPDNATQTHPKLLLTQICMNAFKRGTDGMYATKKVIQADGESADQYYKWTRGSFGYYDNLRNVQKMGEEAERVNAPVYTALTKFFRAYYFYELTLRFGDIPYSQALKGEKEEIYTPEYDAQEDVFAGILQELREADEILANDASVIDGDIIYNGNSTQWRKLINSFRLKVLMTLSNHTTVGNINIASEFKNIATNSPLMNSLADNGQLVYLDQQGNRYPQFNAQWSGYYMDDTFIQRMRERRDPRLFIFSAQTNKGKTEGKPIDDFSSYEGGDPAAPYSDAIIKVSEGTISPINDRFRTDPIVEPTMLMGYAELQQILAEAVVRGWISGNAQTYYEKGIRASFSFYETHAKDYAGYLNENAVAQYLKEPLVDFTQASGTEEQIERIIMQKYLVTFYQGNWDSFYEQLRTGYPDFRRPAGTEIPKRWMYPQGEYDNNGTNVETAITRQFGAGNDKINQATWWQKKS,glycan array binding signal (z-score),[1],0.705
same,glycan array binding signal (z-score),[2],-0.439
same,glycan array binding signal (z-score),[3],-0.175
same,glycan array binding signal (z-score),[4],0.174
same,glycan array binding signal (z-score),[5],-0.459
same,glycan array binding signal (z-score),[6],-0.749
same,glycan array binding signal (z-score),[7],0.125
same,glycan array binding signal (z-score),[8],-0.859
same,glycan array binding signal (z-score),[9],-0.073
same,glycan array binding signal (z-score),[10],-0.443
same,glycan array binding signal (z-score),[11],0.474
same,glycan array binding signal (z-score),[12],-0.343
same,glycan array binding signal (z-score),[13],-0.382
same,glycan array binding signal (z-score),[14],-0.429
same,glycan array binding signal (z-score),[15],0.462
same,glycan array binding signal (z-score),[16],0.981
same,glycan array binding signal (z-score),[17],0.567
same,glycan array binding signal (z-score),[18],0.024
same,glycan array binding signal (z-score),[19],0
same,glycan array binding signal (z-score),[20],-0.487
same,glycan array binding signal (z-score),[21],-0.743
same,glycan array binding signal (z-score),[22],0.108
same,glycan array binding signal (z-score),[23],-0.121
same,glycan array binding signal (z-score),[24],-0.764
same,glycan array binding signal (z-score),[25],-0.297
same,glycan array binding signal (z-score),[26],-0.557
same,glycan array binding signal (z-score),[27],-0.444
same,glycan array binding signal (z-score),[28],-0.393
same,glycan array binding signal (z-score),[29],-0.389
same,glycan array binding signal (z-score),[30],-0.663
same,glycan array binding signal (z-score),[31],0.397
same,glycan array binding signal (z-score),[32],-0.27
same,glycan array binding signal (z-score),[33],-0.185
same,glycan array binding signal (z-score),[34],0.638
same,glycan array binding signal (z-score),[35],-0.164
same,glycan array binding signal (z-score),[36],-0.554
same,glycan array binding signal (z-score),[37],-0.677
